We go through 32 molecules from ChEMBL document CHEMBL1201862, “PubChem BioAssay data set” (2004).

Each structure is given as a SMILES string.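 Growth conditions: 96-well plates. Treatment: test compound, 48 hours, 5 concentrations. Analysis: linear interpolation between bracketing concentrations; unreached endpoints set to highest concentration. GI50 marks 50% less growth.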 Active and inactive are the calls of the source. Rule as the data show it: active = GI50 up to about 1.1 µM and inactive = higher.

This assay deals with NCI-H322M. Nature of the assay: DTP human tumour cell line panel, 48 h.
As a reminder, the GI50 is the concentration that inhibits growth by half. With `Cc1ncc([N+](=O)[O-])n1CCNC(=O)CCn1ccnc1[N+](=O)[O-]`, the GI50 was inactive: > 100 µM.

With `ON/N=C/c1cc2c(cc1Br)OCO2`, the GI50 was inactive: > 386 µM.

As to `COc1ccc(O)c(/C=N/NC(=S)N2CCCCC2)c1`, the GI50 was inactive: 4.5 µM.

In the case of `O=C1CSC(c2cccc(Cl)c2)N1c1c(O)c(Cl)cc(Br)c1Cl` (configuration not stated), the GI50 is inactive: > 100 µM.

On to `N=C(N)NS(=O)(=O)c1ccc(NNc2c3ccccc3nc3c(C(=O)Nc4ccc(S(=O)(=O)Nc5ncccn5)cc4)cccc23)cc1`, for which the GI50 was inactive: 38.5 µM.

`COc1c(C2=NC(C(C)C)CO2)ccc2ccccc12` (configuration not stated): the GI50 is inactive: 62.7 µM.

In the case of `CCOC(=O)CCc1c(C(=O)OCC)[nH]c(/C=C2/NC(=O)C(C)=C2CC)c1C`, the GI50 was inactive: > 100 µM.

For `C/C(Nc1ccc(F)cc1)=C1/CCOC1=O`, the GI50 is inactive: > 100 µM.

In the case of `CC1CCC2C(C)(C)CC3(C)CCC1C23O` (configuration not stated), the GI50 is inactive: 20.7 µM.

On to `CCCCCCCCCCCCCC(=O)OC(/C=C/C(C)C)C(O)C(O)C(OC)C(=O)NC1CCCCNC1=O` (configuration not stated), for which the GI50 was inactive: 2.61 µM.

On to `Cc1nc(O)nc2nc3cc(Cl)cc(Cl)c3c(NC(C)(CO)CO)c12`, for which the GI50 is inactive: > 100 µM.

Consider `Cc1ccc(S(=O)(=O)OC(c2ccc(Cl)cc2Cl)C2OC(=O)c3ccccc32)cc1` (configuration not stated), for which the GI50 was inactive: > 100 µM.

Consider `COc1ccc(C2CC(c3ccc4ccccc4c3O)=NN2C(C)=O)cc1OC` (configuration not stated), for which the GI50 is inactive: > 100 µM.

`CCCCc1ccc(-n2sc3ncc(C)cc3c2=O)cc1`: the GI50 was inactive: > 100 µM.

Consider `COC(CN1C(=O)c2cccc3cccc(c23)C1=O)OC`, for which the GI50 was inactive: 97.3 µM.

Take `O=C(Nc1sccc1S(=O)(=O)c1ccc(Cl)cc1)c1ccc(Cl)cc1Cl`: the GI50 was inactive: 98.4 µM.

Turning to `CCCCCC1=CC(=O)C1(Cl)Cl`, the GI50 was inactive: 12.6 µM.

Consider `Nc1nc(SCCC/C=C/B(O)O)nc2c1ncn2C1OC(CO)C(O)C1O` (configuration not stated), for which the GI50 was inactive: > 243 µM.

As to `COc1cc(/N=N/N(C)C)c(C(C)c2c3cc(OC)c(OC)cc3cc[n+]2C)cc1OC` (configuration not stated), the GI50 was inactive: > 100 µM.

Turning to `CC/C(=N/O)c1ccc(Br)s1`, the GI50 is inactive: > 100 µM.

Regarding `O=C1Nc2ccccc2C(=O)/C1=C/NC(=S)NC1CCCCC1`, the GI50 is inactive: > 100 µM.

On to `Cc1cc(C(=O)NCCN(C)C)c2nc3ccccc3nc2c1`, for which the GI50 is inactive: 4.08 µM.

On to `CNC(=O)[C@H](Cc1ccccc1)NC(=O)N(CCC#N)CCN(C(=O)N[C@@H](Cc1ccccc1)C(=O)OC)c1ccccc1`, for which the GI50 was inactive: > 100 µM.

Consider `Cc1nc2sccn2c1C(=O)N/N=C1\SCC(=O)N1C`, for which the GI50 was inactive: > 100 µM.

Turning to `CCOC(=O)NC(Nc1cc(Cl)ccc1OC)(C(F)(F)F)C(F)(F)F`, the GI50 was inactive: > 100 µM.

With `CCCN(CCC)C(=S)Sc1nc(C)nc(N2CCN(c3nc(C)nc(SC(=S)N(CCC)CCC)c3[N+](=O)[O-])CC2)c1[N+](=O)[O-]`, the GI50 was inactive: 27.2 µM.

On to `COc1cccc(NC(=O)c2c(N)n[nH]c2SC)c1`, for which the GI50 was inactive: > 100 µM.

Turning to `Cc1ccc([S+](c2ccccc2)c2cc(C)ccc2C)cc1.O=C(OC(C(=O)[O-])C(OC(=O)c1ccccc1)C(=O)O)c1ccccc1` (configuration not stated), the GI50 was inactive: 26.8 µM.

With `CCC(=O)Nc1cccc(/N=C/c2ccc(OC(=O)/C=C\c3ccccc3)cc2)c1`, the GI50 is inactive: > 75 µM.

Regarding `O=C1CC(c2ccccc2Cl)C2(C(=O)NC(=S)NC2=O)C(c2ccccc2Cl)C1` (configuration not stated), the GI50 is active: 0.252 µM.

For the molecule `COc1cc2c(cc1OC)-c1[nH]c3ccc(C#N)cc3c1CC(=O)N2`, the GI50 was inactive: 3.52 µM.

For the molecule `CCCCCCCOc1ccc(/C=C\c2cc[n+](CCCCCCCC[n+]3ccc(/C=C\c4ccc(OCCCCCCC)cc4)cc3)cc2)cc1`, the GI50 was inactive: 16 µM.
